Read-outs that look alike come from different tables or passages of the source. These are yes or no findings as the source states them, for the method shown. Binding seen in cells or lysates may run through a third protein. Some results given as binding are weak or reduced against the parent protein; the word gives no strength. For part of these data: Where a sequence is shown, tags or fusion partners need not be part of it.
Key:
[1] = biological target: T1, His-tagged Nogo-A-Δ20 (rat aa544-725) (rat) (UniProt Q9JK11); assay: pull-down; His-tagged Nogo-A-Δ20 co-incubated with S1PR2 membrane preparations and precipitated (His Protein Interaction Pull-Down kit, Pierce); blot for S1PR2; heat-inactivated Nogo-A-Δ20 as control; only the target purified
T1 sequence: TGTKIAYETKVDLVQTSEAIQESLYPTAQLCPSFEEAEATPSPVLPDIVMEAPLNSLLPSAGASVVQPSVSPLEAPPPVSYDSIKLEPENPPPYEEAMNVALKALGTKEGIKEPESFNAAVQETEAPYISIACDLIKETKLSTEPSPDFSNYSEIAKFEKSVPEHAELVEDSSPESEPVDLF

Protein sequences, listed by entry. Tags and fused reporters are not part of them.
UniProt O95136: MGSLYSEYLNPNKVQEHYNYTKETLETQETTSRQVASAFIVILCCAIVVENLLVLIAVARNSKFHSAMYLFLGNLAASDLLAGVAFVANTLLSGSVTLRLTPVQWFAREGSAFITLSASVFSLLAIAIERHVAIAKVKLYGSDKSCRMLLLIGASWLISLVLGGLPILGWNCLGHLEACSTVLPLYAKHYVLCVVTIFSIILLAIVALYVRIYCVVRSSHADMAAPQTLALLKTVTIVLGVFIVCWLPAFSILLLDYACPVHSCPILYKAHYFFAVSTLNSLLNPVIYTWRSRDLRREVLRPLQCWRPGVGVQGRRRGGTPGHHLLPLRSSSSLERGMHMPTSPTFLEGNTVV
UniProt P52592: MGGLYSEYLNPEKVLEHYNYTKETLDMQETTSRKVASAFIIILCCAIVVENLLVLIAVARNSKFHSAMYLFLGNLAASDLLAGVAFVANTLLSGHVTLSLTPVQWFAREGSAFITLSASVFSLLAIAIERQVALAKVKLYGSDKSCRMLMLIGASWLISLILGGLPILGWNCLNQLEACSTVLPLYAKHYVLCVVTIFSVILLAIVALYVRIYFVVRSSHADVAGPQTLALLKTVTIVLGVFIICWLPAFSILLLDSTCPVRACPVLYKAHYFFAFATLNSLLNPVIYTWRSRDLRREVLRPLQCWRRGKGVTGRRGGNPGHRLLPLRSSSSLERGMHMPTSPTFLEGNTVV

[2] = biological target: T1, His-tagged Nogo-A-Δ20 (rat aa544-725) (rat); assay: as above; remark: listed apart in the source
[3] = biological target: T2, Endogenous Nogo-A (~200 kDa) of mouse brain (mouse (endogenous in mouse brain)) (UniProt Q99P72); assay: co-IP; whole brain of P10 WT, Nogo-A-/- and S1PR2-/- mice lysed in RIPA buffer; Pierce Co-IP Kit; IP of Nogo-A or of S1PR2; controls: IgG, resin only, quenched antibody resin
T2 sequence: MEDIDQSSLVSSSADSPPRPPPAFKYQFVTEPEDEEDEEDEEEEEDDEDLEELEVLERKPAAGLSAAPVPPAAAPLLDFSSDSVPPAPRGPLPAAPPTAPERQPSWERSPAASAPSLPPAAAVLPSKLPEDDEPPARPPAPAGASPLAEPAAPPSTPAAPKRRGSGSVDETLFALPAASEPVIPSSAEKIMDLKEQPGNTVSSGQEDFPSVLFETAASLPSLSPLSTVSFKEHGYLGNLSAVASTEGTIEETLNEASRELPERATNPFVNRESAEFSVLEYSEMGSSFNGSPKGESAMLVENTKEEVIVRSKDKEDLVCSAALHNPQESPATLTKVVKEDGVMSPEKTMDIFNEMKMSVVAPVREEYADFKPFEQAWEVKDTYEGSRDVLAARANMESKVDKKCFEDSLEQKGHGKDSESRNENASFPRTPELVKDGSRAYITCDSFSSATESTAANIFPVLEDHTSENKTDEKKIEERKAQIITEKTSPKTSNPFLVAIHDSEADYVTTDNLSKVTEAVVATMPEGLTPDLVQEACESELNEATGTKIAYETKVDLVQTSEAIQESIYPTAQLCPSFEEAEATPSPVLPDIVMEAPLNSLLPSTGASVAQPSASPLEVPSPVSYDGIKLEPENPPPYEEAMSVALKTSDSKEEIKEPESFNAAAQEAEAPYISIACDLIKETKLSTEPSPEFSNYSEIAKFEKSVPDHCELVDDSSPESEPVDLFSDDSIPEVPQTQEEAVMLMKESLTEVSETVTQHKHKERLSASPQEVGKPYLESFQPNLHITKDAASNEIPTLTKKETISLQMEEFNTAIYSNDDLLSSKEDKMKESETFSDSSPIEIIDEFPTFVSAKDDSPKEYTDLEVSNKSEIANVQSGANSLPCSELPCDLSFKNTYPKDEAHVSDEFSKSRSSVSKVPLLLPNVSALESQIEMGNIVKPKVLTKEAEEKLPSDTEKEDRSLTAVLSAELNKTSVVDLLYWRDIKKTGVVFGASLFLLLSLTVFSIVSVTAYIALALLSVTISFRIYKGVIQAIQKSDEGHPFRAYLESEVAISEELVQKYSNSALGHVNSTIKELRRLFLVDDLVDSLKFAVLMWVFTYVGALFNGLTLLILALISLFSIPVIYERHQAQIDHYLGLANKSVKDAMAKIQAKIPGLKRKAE

[4] = biological target: Recombinant full length S1PR2 in membrane preparations (UniProt O95136); assay: co-IP; His-tagged Nogo-A-Δ20 co-incubated with S1PR2-overexpressing membranes; S1PR2 immunoprecipitated, blot for His-tagged Δ20; heat-inactivated Δ20 as control; only the binder purified
[5] = biological target: Recombinant full length S1PR2 in membrane preparations (UniProt O95136); assay: as above; remark: listed apart in the source
[6] = biological target: Endogenous S1PR2 (~40 kDa) of mouse brain (mouse (endogenous in mouse brain)) (UniProt P52592); assay: co-IP; whole brain of P10 WT, Nogo-A-/- and S1PR2-/- mice lysed in RIPA buffer; Pierce Co-IP Kit; IP of Nogo-A or of S1PR2; controls: IgG, resin only, quenched antibody resin

**Q.** Which results are given for “Recombinant full length S1PR2 in membrane preparations (from UniProt O95136 1-353) (receptor)”?
**A.** binding [1]: binds; binding [2]: no binding (condition: heat-inactivated Δ20)

**Q.** “Endogenous S1PR2 (~40 kDa) of mouse brain (from UniProt P52592 1-352) (receptor)” was tested. Which binding [3] did it give?
**A.** binds

B1: His-tagged Nogo-A-Δ20 (rat aa544-725) (domain or fragment, UniProt Q9JK11-1 544-725)
chain: T1 sequence
**Q.** Which binding [4] does the source give for B1 here?
**A.** binds

**Q.** What about the binding [5] of the same molecule?
**A.** no binding (condition: heat-inactivated Δ20)

B2: Endogenous Nogo-A (~200 kDa) of mouse brain (protein, UniProt Q99P72-2 1-1162)
chain: T2 sequence
**Q.** With B2 as the molecule, how does the binding [6] read?
**A.** binds

From article PMC3891622, “The Sphingolipid Receptor S1PR2 Is a Receptor for Nogo-A Repressing Synaptic Plasticity” (PLoS Biology, 2014)
